Assay results reported in US20190276511A1 (BIONTECH RNA PHARMACEUTICALS, published 2019).

T1: OX40 receptor on cells (human, UniProt P43489 29-277)
T1 sequence (looked up): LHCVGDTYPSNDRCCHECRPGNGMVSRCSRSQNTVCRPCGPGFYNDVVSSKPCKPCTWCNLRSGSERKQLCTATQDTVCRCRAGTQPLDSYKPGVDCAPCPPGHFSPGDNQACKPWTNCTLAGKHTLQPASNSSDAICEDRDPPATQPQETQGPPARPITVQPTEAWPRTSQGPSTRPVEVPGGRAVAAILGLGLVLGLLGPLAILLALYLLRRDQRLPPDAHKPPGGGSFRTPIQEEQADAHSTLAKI

T2: OX40-Fc (human, UniProt P43489 29-214)
T2 construct: extracellular domain; hinge included for covalent assembly; also called OX40 receptor-Fc fusion protein; not shown: human Fc gamma 1 region including the hinge region
T2 sequence (looked up): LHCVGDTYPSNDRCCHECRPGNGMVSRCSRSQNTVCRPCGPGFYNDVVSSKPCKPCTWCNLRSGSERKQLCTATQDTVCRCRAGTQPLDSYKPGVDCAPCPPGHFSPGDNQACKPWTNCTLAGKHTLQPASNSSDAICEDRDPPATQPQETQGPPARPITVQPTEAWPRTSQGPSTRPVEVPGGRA

T3: CD27-Fc (human, UniProt P26842 20-191)
T3 construct: extracellular domain; hinge included for covalent assembly; also called CD27 receptor-Fc fusion protein; not shown: human Fc gamma 1 region including the hinge region
T3 sequence (looked up): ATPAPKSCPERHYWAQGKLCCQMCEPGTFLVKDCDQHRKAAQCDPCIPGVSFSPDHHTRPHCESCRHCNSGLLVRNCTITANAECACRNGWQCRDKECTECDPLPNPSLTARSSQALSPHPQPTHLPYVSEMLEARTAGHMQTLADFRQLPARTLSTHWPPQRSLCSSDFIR

B1: 4-1BBL-OX40L (ligand)
chain: [not shown - about 200 residues]GGGGSGGGGSGGGGSGGGGSQVSHRYPRIQSIKVQFTEYKKEKGFILTSQKEDEIMKVQNNSVIINCDGFYLISLKGYFSQEVNISLHYQKDEEPLFQLKKVRSVNSLMVASLTYKDKVYLNVTTDNTSLDDFHVNGGELILIHQNPGEFCVL
notes: Duokine from HEK293, FLAG-purified; VH leader left out; homotrimer by SEC; also called Duokine 4-1BBL-OX40L; not shown: N-terminal FLAG tag
B2: sc4-1BBL-scCD40L (ligand)
chain: [not shown - about 200 residues]GGGGSGGGGSGGGGSREGPELSPDDPAGLLDLRQGMFAQLVAQNVLLIDGPLSWYSDPGLAGVSLTGGLSYKEDTKELVVAKAGVYYVFFQLELRRVVAGEGSGSVSLALHLQPLRSAAGAAALALTVDLPPASSEARNSAFGFQGRLLHLSAGQRLGVHLHTEARARHAWQLTQGATVLGLFRVTPEIPAGLPSPRSEGGGGSGGGGSGGGGSREGPELSPDDPAGLLDLRQGMFAQLVAQNVLLIDGPLSWYSDPGLAGVSLTGGLSYKEDTKELVVAKAGVYYVFFQLELRRVVAGEGSGSVSLALHLQPLRSAAGAAALALTVDLPPASSEARNSAFGFQGRLLHLSAGQRLGVHLHTEARARHAWQLTQGATVLGLFRVTPEIPAGLPSPRSEGGGGSGGGTGGGGSGDQNPQIAAHVISEASSKTTSVLQWAEKGYYTMSNNLVTLENGKQLTVKRQGLYYIYAQVTFCSNREASSQAPFIASLCLKSPGRFERILLRAANTHSSAKPCGQQSIHLGGVFELQPGASVFVNVTDPSQVSHGTGFTSFGLLKLGGGSGGGGDQNPQIAAHVISEASSKTTSVLQWAEKGYYTMSNNLVTLENGKQLTVKRQGLYYIYAQVTFCSNREASSQAPFIASLCLKSPGRFERILLRAANTHSSAKPCGQQSIHLGGVFELQPGASVFVNVTDPSQVSHGTGFTSFGLLKLGGGSGGGGDQNPQIAAHVISEASSKTTSVLQWAEKGYYTMSNNLVTLENGKQLTVKRQGLYYIYAQVTFCSNREASSQAPFIASLCLKSPGRFERILLRAANTHSSAKPCGQQSIHLGGVFELQPGASVFVNVTDPSQVSHGTGFTSFGLLKL
notes: scDuokine from HEK293; VH leader left out; also called single-chain Duokine sc4-1BBL-scCD40L; not shown: N-terminal FLAG tag
B3: sc4-1BBL-scCD27L (ligand)
chain: [not shown - about 200 residues]GGGGSGGGGSGGGGSREGPELSPDDPAGLLDLRQGMFAQLVAQNVLLIDGPLSWYSDPGLAGVSLTGGLSYKEDTKELVVAKAGVYYVFFQLELRRVVAGEGSGSVSLALHLQPLRSAAGAAALALTVDLPPASSEARNSAFGFQGRLLHLSAGQRLGVHLHTEARARHAWQLTQGATVLGLFRVTPEIPAGLPSPRSEGGGGSGGGGSGGGGSREGPELSPDDPAGLLDLRQGMFAQLVAQNVLLIDGPLSWYSDPGLAGVSLTGGLSYKEDTKELVVAKAGVYYVFFQLELRRVVAGEGSGSVSLALHLQPLRSAAGAAALALTVDLPPASSEARNSAFGFQGRLLHLSAGQRLGVHLHTEARARHAWQLTQGATVLGLFRVTPEIPAGLPSPRSEGGGGSGGGTGGGGSSLGWDVAELQLNHTGPQQDPRLYWQGGPALGRSFLHGPELDKGQLRIHRDGIYMVHIQVTLAICSSTTASRHHPTTLAVGICSPASRSISLLRLSFHQGCTIASQRLTPLARGDTLCTNLTGTLLPSRNTDETFFGVQWVRPGGGSGGGSLGWDVAELQLNHTGPQQDPRLYWQGGPALGRSFLHGPELDKGQLRIHRDGIYMVHIQVTLAICSSTTASRHHPTTLAVGICSPASRSISLLRLSFHQGCTIASQRLTPLARGDTLCTNLTGTLLPSRNTDETFFGVQWVRPGGGSGGGSLGWDVAELQLNHTGPQQDPRLYWQGGPALGRSFLHGPELDKGQLRIHRDGIYMVHIQVTLAICSSTTASRHHPTTLAVGICSPASRSISLLRLSFHQGCTIASQRLTPLARGDTLCTNLTGTLLPSRNTDETFFGVQWVRP
notes: scDuokine from HEK293; VH leader left out; also called single-chain Duokine sc4-1BBL-scCD27L; not shown: N-terminal FLAG tag
B4: sc4-1BBL-scOX40L (ligand)
chain: [not shown - about 200 residues]GGGGSGGGGSGGGGSREGPELSPDDPAGLLDLRQGMFAQLVAQNVLLIDGPLSWYSDPGLAGVSLTGGLSYKEDTKELVVAKAGVYYVFFQLELRRVVAGEGSGSVSLALHLQPLRSAAGAAALALTVDLPPASSEARNSAFGFQGRLLHLSAGQRLGVHLHTEARARHAWQLTQGATVLGLFRVTPEIPAGLPSPRSEGGGGSGGGGSGGGGSREGPELSPDDPAGLLDLRQGMFAQLVAQNVLLIDGPLSWYSDPGLAGVSLTGGLSYKEDTKELVVAKAGVYYVFFQLELRRVVAGEGSGSVSLALHLQPLRSAAGAAALALTVDLPPASSEARNSAFGFQGRLLHLSAGQRLGVHLHTEARARHAWQLTQGATVLGLFRVTPEIPAGLPSPRSEGGGGSGGGTGGGGSQVSHRYPRIQSIKVQFTEYKKEKGFILTSQKEDEIMKVQNNSVIINCDGFYLISLKGYFSQEVNISLHYQKDEEPLFQLKKVRSVNSLMVASLTYKDKVYLNVTTDNTSLDDFHVNGGELILIHQNPGEFCVLGGGSGGGQVSHRYPRIQSIKVQFTEYKKEKGFILTSQKEDEIMKVQNNSVIINCDGFYLISLKGYFSQEVNISLHYQKDEEPLFQLKKVRSVNSLMVASLTYKDKVYLNVTTDNTSLDDFHVNGGELILIHQNPGEFCVLGGGSGGGQVSHRYPRIQSIKVQFTEYKKEKGFILTSQKEDEIMKVQNNSVIINCDGFYLISLKGYFSQEVNISLHYQKDEEPLFQLKKVRSVNSLMVASLTYKDKVYLNVTTDNTSLDDFHVNGGELILIHQNPGEFCVL
notes: scDuokine from HEK293; VH leader left out; also called single-chain Duokine sc4-1BBL-scOX40L; not shown: N-terminal FLAG tag
B5: 4-1BBL-CD27L (ligand)
chain: [not shown - about 200 residues]GGGGSGGGGSGGGGSGGGGSSLGWDVAELQLNHTGPQQDPRLYWQGGPALGRSFLHGPELDKGQLRIHRDGIYMVHIQVTLAICSSTTASRHHPTTLAVGICSPASRSISLLRLSFHQGCTIASQRLTPLARGDTLCTNLTGTLLPSRNTDETFFGVQWVRP
notes: Duokine from HEK293, FLAG-purified; VH leader left out; homotrimer by SEC; also called Duokine 4-1BBL-CD27L; not shown: N-terminal FLAG tag

What was measured:
[1] = target: T4, 4-1BB receptor on cells (human, UniProt Q07011 24-255); assay: cell-based or functional assay
[2] = target: T1, OX40 receptor on cells; assay: cell-based or functional assay
[3] = target: T2, OX40-Fc; assay: ELISA, coated receptor-Fc
Method: (§1) Receptor binding of the Duokines was analyzed by ELISA using fusion proteins of the extracellular region of CD40, CD27, 4-1BB and OX40, respectively, with the human Fcγ1 region including the hinge region for covalent assembly (CD40-Fc, CD27-Fc, 4-1BB-Fc, OX40-Fc). Receptor-Fc fusion proteins (200 ng/well) were coated overnight at 4° C. and remaining binding sites were blocked with PBS, 2% skimmed milk powder (2% MPBS).

[4] = target: T5, 4-1BB-Fc (human, UniProt Q07011 24-186); assay: ELISA, coated receptor-Fc
T5 construct: extracellular domain; hinge included for covalent assembly; also called 4-1BB receptor-Fc fusion protein; not shown: human Fc gamma 1 region including the hinge region
Method: as §1

[5] = target: T3, CD27-Fc; assay: ELISA, coated receptor-Fc
[6] = target: T6, CD40-Fc (human, UniProt P25942 partial chain); assay: ELISA, coated receptor-Fc
T6 construct: extracellular domain; hinge included for covalent assembly; also called CD40 receptor-Fc fusion protein; not shown: human Fc gamma 1 region including the hinge region

[7] = target: CD40 receptor on cells (human, UniProt P25942 21-277); assay: cell-based or functional assay
[8] = target: T4, 4-1BB receptor on cells; assay: cell-based or functional assay; remark: listed apart in the source
[9] = target: T5, 4-1BB-Fc; assay: ELISA, coated receptor-Fc; remark: listed apart in the source
Method: as §1, with “of the single-chain Duokines was” for “of the Duokines was”, “(2% MPBS). […] The interactions between scDuokine and receptor were dose-dependent with EC₅₀ values in the low nanomolar ranges (FIG. 11 AB, Tab. 2).” for “(2% MPBS).”

[10] = target: T6, CD40-Fc; assay: ELISA, coated receptor-Fc; remark: listed apart in the source
Method: as §1, with “of the single-chain Duokines was” for “of the Duokines was”, “(2% MPBS). […] The interactions between scDuokine and receptor were dose-dependent with EC₅₀ values in the low nanomolar ranges (FIG. 11 AB, Tab. 2).” for “(2% MPBS).”

[11] = target: T2, OX40-Fc; assay: ELISA, coated receptor-Fc; remark: listed apart in the source
[12] = target: T3, CD27-Fc; assay: ELISA, coated receptor-Fc; remark: listed apart in the source
Method: as §1, with “of the single-chain Duokines was” for “of the Duokines was”, “(2% MPBS). […] The interactions between scDuokine and receptor were dose-dependent with EC₅₀ values in the low nanomolar ranges (FIG. 11 AB, Tab. 2).” for “(2% MPBS).”

[13] = target: T1, OX40 receptor on cells; assay: cell-based or functional assay; remark: listed apart in the source
[14] = target: T2, OX40-Fc; assay: ELISA, coated receptor-Fc; remark: listed apart in the source
Method: as §1, with “of the single-chain Duokines was” for “of the Duokines was”, “(2% MPBS). […] The interactions between scDuokine and receptor were dose-dependent with EC₅₀ values in the low nanomolar ranges (FIG. 11 AB, Tab. 2).” for “(2% MPBS).”

[15] = target: T3, CD27-Fc; assay: ELISA, coated receptor-Fc; remark: listed apart in the source
Method: as §1

T4 sequence (Q07011 24-255): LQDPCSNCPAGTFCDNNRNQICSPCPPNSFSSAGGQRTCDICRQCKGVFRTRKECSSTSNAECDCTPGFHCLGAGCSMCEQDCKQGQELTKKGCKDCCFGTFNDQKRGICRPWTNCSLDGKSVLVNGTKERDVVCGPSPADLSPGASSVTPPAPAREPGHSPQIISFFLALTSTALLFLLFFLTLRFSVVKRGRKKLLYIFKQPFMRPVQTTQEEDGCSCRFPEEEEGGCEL
T6 sequence (P25942 21-193 limits assumed): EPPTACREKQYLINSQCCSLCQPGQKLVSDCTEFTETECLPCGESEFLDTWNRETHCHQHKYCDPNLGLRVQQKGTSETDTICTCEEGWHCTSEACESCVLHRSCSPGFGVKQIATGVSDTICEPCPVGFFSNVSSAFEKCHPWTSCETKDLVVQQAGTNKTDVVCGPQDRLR

| Receptor activation (EC50, nM) [1] [nM] | Receptor activation (EC50, nM) [2] [nM] | EC50 [3] [nM] | EC50 [4] [nM] | binding result [5] | binding result [6] | Receptor activation (EC50, nM) [7] [nM] | Receptor activation (EC50, nM) [8] [nM] | EC50 [9] [nM] | EC50 [10] [nM] | binding result [11] | EC50 [12] [nM] | Receptor activation (EC50, nM) [13] [nM] | EC50 [14] [nM] | EC50 [15] [nM] | Binder |
| --- | --- | --- | --- | --- | --- | --- | --- | --- | --- | --- | --- | --- | --- | --- | --- |
| 1.16 | 1.35 | 0.45 | 1.13 | no binding (tested: 100 nM (FIG. 4)) | no binding (tested: 100 nM (FIG. 4)) | – | – | – | – | – | – | – | – | – | B1 |
| – | – | – | – | no binding (tested: 100 nM (FIG. 10)) | – | 2.85 | 0.18 | 2.28 | 5.73 | no binding (tested: 100 nM (FIG. 10)) | – | – | – | – | B2 |
| – | – | – | – | – | no binding (tested: 100 nM (FIG. 10)) | – | 1.37 | 2.9 | – | no binding (tested: 100 nM (FIG. 10)) | 2.75 | – | – | – | B3 |
| – | – | – | – | no binding (tested: 100 nM (FIG. 10)) | no binding (tested: 100 nM (FIG. 10)) | – | 13.2 | 2.91 | – | – | – | 0.45 | 5.23 | – | B4 |
| 1.22 | – | – | 1.41 | – | no binding (tested: 100 nM (FIG. 4)) | – | – | – | – | no binding (tested: 100 nM (FIG. 4)) | – | – | – | 1.48 | B5 |

Read-outs that look alike come from different tables or passages of the source.
